Reference: the RNAGym collection of RNA variant scans (doi:10.7554/elife.90254)
Read counts are not given, so values of variants with three or more changes are uncertain.

B1: LINE1-mini (parent)
chain: GGCAGAGCUCAACACAGCGUGGCAAAGUGGCUGUGGCUAGACUGCC

Variants of: B1
Assay: self-cleavage, relative activity (ratio to wild type); higher = more cleavage; in vitro, sequencing; the parent is a self-cleaving ribozyme

Variant | self-cleavage
G5C A6G C18A G19A G36A | 0.07
G5C A6G C18U G21U G27C | 0.07
G5C A6G C42G | 0.11
G5C A6G G17C A41C | 0.03
G5C A6G G19A G30A | 0.07
G5C A6G G22C G29A G30C | 0.04
G5C A6G G29C C45A | 0.06
G5C A6G G30C U32G | 0
G5C A6U A16U C23U C46A | 0.02
G5C A6U A25C | 0.07
G5C A6U C13A C15A | 0.1
G5C A6U C18U G29A U43G | 0.02
G5C A6U C23U | 0.08
G5C A6U C31G G33C | 0.06
G5C A6U G7C | 0.02
G5C A6U G7C G22A G44A | 0.2
G5C A6U G29U C46G | 0.08
G5C A6U U20A G27C C31A G33C C46A | 0.02
G5C A6U U20C C37A U38A U43C | 0.02
G5C A6U U20G | 0.04
G5C A6U U32C | 0.04

Variant | self-cleavage
G5C A6U U43C | 0.06
G5C A11C A12U U34G | 0.02
G5C A11C C13G A26G G36A | 0.01
G5C A11C G19A G22U U28G | 0.01
G5C A11C G19C A25C | 0.02
G5C A11C G21U | 0.04
G5C A11C G35A C42U | 0.02
G5C A11C U20A | 0.03
G5C A11C U32A | 0.01
G5C A11C U32C G44C | 0.04
G5C A11G C15U C18A C23A | 0.01
G5C A11G U20G G21U C42U | 0.01
G5C A11U A16U | 0.04
G5C A11U C37U | 0.03
G5C A11U G19U C42U G44U | 0.01
G5C A11U G21U C31A G40C U43C | 0
G5C A12C C15G A16C U38A | 0.02
G5C A12C G40C | 0.03
G5C A12C U28C | 0.03
G5C A12C U38A | 0.01
G5C A12G A16C G17U G22A G27U | 0.1

Variant | self-cleavage
G5C A12G C13U C18A G22A C42A | 0.05
G5C A12G C18A | 0.02
G5C A12G C23G U32A G33A | 0.02
G5C A12G G21U | 0.81
G5C A12U A24G A41C | 0.01
G5C A12U G22C C31A | 0.02
G5C A12U U20A G21C A26C C37A U43G | 0
G5C A14C C18U C23G | 0.01
G5C A14C C23A | 0.02
G5C A14C G17C G22C | 0.04
G5C A14C G19C C31A C37U C45U | 0.01
G5C A14C G30U U43A | 0.02
G5C A14C G44U C46G | 0.02
G5C A14G A25C U32C | 0.05
G5C A14G G17C G27A G30U | 0.06
G5C A14G G30C G36U A41G | 0.31
G5C A14U A24C | 0
G5C A14U A25C | 0.03
G5C A14U C15G | 0
G5C A14U G21U | 0.05
G5C A14U G40A | 0.04

Variant | self-cleavage
G5C A16C G19C G21U G35U | 0.02
G5C A16C G19C G36C C46G | 0.02
G5C A16C G27A G44A | 0.03
G5C A16C G29U G36U | 0.08
G5C A16G C18A C23A G27C G36C G40U | 0.01
G5C A16G G17C G44C | 0.02
G5C A16G G36C | 0.09
G5C A16G U43A | 0.02
G5C A16U A25G A41C G44C C46U | 0.01
G5C A16U G17U | 0.09
G5C A16U G19U U20C C31G | 0.01
G5C A16U G21U C23A U43A | 0.01
G5C A16U U43A | 0.04
G5C A24C C31G C37G U38G C42U | 0
G5C A24C C37A C42U | 0.04
G5C A24C U28C G40A U43G | 0.05
G5C A24G G30C G44C | 0.02
G5C A24U G35A A41G | 0.03
G5C A25C A26U G33A | 0.03
G5C A25C C31U C46U | 0.03
